Laboratory results as given in the supplement of paper PMC11417369.
Some of the results follow.

The sequences below were run on PF3D7_0420300 AP2 domain 1 (GST-tagged) (assay: gcPBM binding intensity (ln(normalized median fluorescence intensity)); higher = stronger DNA binding).
In short: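 Probes on an Agilent 4 × 180k array were primer-extended, double-stranded and 36 bp long, taken from intergenic genomic regions, with negative controls added. GST-tagged P. falciparum DNA-binding domains from E. coli, about 25 μg on average, were applied to the array for 1 h in 1× PBS containing 1% milk, 0.2 mg/ml BSA, 0.5% salmon testes DNA and 0.03% Triton X-100. Binding intensity, obtained after Alexa488 anti-GST antibody detection and a 488 nm scan, is the highest Masliner-normalised natural-log median intensity across replicate spots of either probe orientation.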

Sequence | gcPBM binding intensity (ln)
AAATAAGAAAATCATAGTACATAGGAATAGAAGAAC [XGTACX_site3135] | 9.9
TACGTTCTGATATATACACACCTGGTATTAATTATG [CACACA_site7113] | 9.73
AGAAAAATTATATATACACACTTATATTTATATATA [CACACA_site5555] | 9.3
TTATCTTAATTGTGATTATAAAGATATTCTTTCTAT [GTGCAC_negctrl_site410] | 9
CAACCTCATAATATTTAACACACAAAATTATATGTA [CACACA_site8496] | 9.45
CATTTAGAATAAGGCACACATAAAGAACACTTTCCA [CACACA_site130] | 9.36
ATACCAAATGAATAATGTACATACGAACATACATAT [XGTACX_site1301] | 9.46
GTACATTGTAAGGATGGAAAAGCTAAACATTATAAT [XGTACX_negctrl_site339] | 9.39
ATATTTTTAACCAAGGACACAATTCTTGTATTGTTA [CACACA_negctrl_site1326] | 9.1
AAAAGATTAAGTAGAATAATGTTCTTTCCCAACATA [GTGCAC_negctrl_site223] | 9
TAAGTCGTTATAAGCACACACATAAATAAAAATAAA [CACACA_site1574] | 9.54
AAGGGTTATAAAAATTGTACTTTTTTTATTTTTTTT [XGTACX_site1313] | 9.31
ATATATTTATATAGGTGTACATATTTTGCTATTCAA [XGTACX_site5199] | 9.23
TCAATTTTTTAATGTTGTACTTTGTAAAAAAAAATA [XGTACX_site8481] | 8.8
TTGATATGTACAGGCACACATAAATTTCACAAATAT [CACACA_site3999] | 9.31
CGTATTATTTTATAAACACACAAGGGGGCATGTATA [CACACA_site6489] | 9.79
CTTTAGTTTTTAATGTGTACTGAATTTGAATAGTAG [XGTACX_site7920] | 9.12
ATATAATTAAAAACATGTACATATATATATATATAT [XGTACX_site2882] | 9.26
CATAAATGTATATAAACATGCAAGGACAGACTTTTA [TGCATGCA_site900] | 9.39

Sequence | gcPBM binding intensity (ln)
AAAATTAAATTATAAGCACACACATATATATATATA [CACACA_site9105] | 9.44
TACATACAGATATATACACACATATATAATATATAT [CACACA_site4376] | 9.71
TACATACCTATATACACATGCATATTTACATATATT [TGCATGCA_site206] | 9.67
GTAAAAATACAAAAGGTGCTCAAACAATATAATACA | 9.6
AATGGATTGATAAGTGGTACACACATATATATTATA [XGTACX_site6086] | 9.58
GAATATTAAACAAACACACACACATATATTTATATA [CACACA_site7563] | 10.1
TATATAATATATATGACACACATATTTATATAAATA [CACACA_site4054] | 9.28
TATTCTGGTGTAAATGCACACAGAAGAAGAAAAAAA [CACACA_site9225] | 9.27
AAGGACACCTTCAAAACACACATACAAATAAATAGA [CACACA_site5771] | 9.62
TTCTGTTGGAATATATGTACATAATAAAAAAAAATA [XGTACX_site1741] | 8.99
TTTTTTTTTTTTGTAATACACACCACTATATGTTAT [CACACA_site1844] | 9.45
AATAAATAAAAAAAAAAAAAAAAAAAAAAAAAAAAA [XGTACX_negctrl_site343] | 8.62
TGTAGTCTGGAGAAAAGTACACAGTATCTGGTAACA [XGTACX_site2010] | 9.05
TATGGCAAAACATTCACACATATTTATATATGTGTA [CACACA_site5588] | 9.2
AGTTTTATAAAAATATGTACTTATATACACATGTAT [XGTACX_site4022] | 9.33
TGTGGGAATAACCACACACACACACGCATATAAATA [CACACA_site7634] | 10
TTTTCATATGAACAATGTACACATCGTATAATTCTG [XGTACX_site4756] | 9.23
TGAACAGACGAGCACACACACACATATATATATATA [CACACA_site1019] | 9.87
CTCATAAAAATAACGTTAACATAAATTTATTGTGAT [XGTACX_negctrl_site169] | 9.31

Sequence | gcPBM binding intensity (ln)
AATATAAAACATATCACACATATGTATTTATGTATA [CACACA_site5763] | 9.22
TATATGTCAATATCTACACACATATATATAATTATT [CACACA_site3156] | 9.5
ATACATATTAAAGGATGTACACTTATATTTTTTAGA [XGTACX_site5406] | 9.11
TTTATATTATTTTAAACATGCACAAGTATAATTTAT [TGCATGCA_site233] | 8.97
TAAATTTAGAAACACACACACATATATATATATATA [CACACA_site847] | 9.72
AATTTAAACAAGGATCCACACACCCCAAAAAAAAAA [CACACA_site8125] | 9.83
AATAATTAAAATTATCTACACACCTTTATAAATATA [CACACA_site9300] | 9.29
GCCATTAATTTATACACACACATTATGATTTTTTAT [CACACA_site754] | 9.95
CCTGAACACATACATACACACACACTAATAAAAAAA [CACACA_site8023] | 9.86
ATGCATATGTTTATTGCACACACCAAAAAGAAAACA [CACACA_site403] | 9.64
AAAATGTGCCCACGCGTACACACAAAAAAAGAAAAA [CACACA_site2004] | 9.45
TACAAACTATGATGCACACATATATATATGTATACA [CACACA_site1226] | 9.42
AACATACACATATACACACACACATATATACATATA [CACACA_site1093] | 10.2
AAAAAAAAAAAAACATGTACATAAATGTAAAAAAGT [XGTACX_site8158] | 9.81
TATAATAACAATTTAGTGCATATAATAATATTTTAT | 9.08
GCTTTTGAAAATATACACATGTTAGGAATACAGGGG [TGCATGCA_negctrl_site480] | 9.67
ACATATAAAATGTATACACACAAATATTACAGAGAT [CACACA_site4920] | 9.8
ATTTTTTTTCTTTTTTTTTTACATTTTTTTCTTTTT [CACACA_negctrl_site1289] | 9.62
AATTAAGTTAAACATTAAAAAAAACAAAAAATTAAA [CACACA_negctrl_site1333] | 9.22
